From paper PMC4336329 (PLoS ONE, 2015) come the findings set out here.

In all, about 310,000 compounds went through this assay and about 14,000 (4.5%) showed an effect of 50% or more. Effects have a minus sign here. This is one part of the list.
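Also: peak tail current of the secondary pulse compared with the same well before compound.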

Chain of human ether-à-go-go-related gene (hERG) potassium channel (Q12809 whole entry, looked up): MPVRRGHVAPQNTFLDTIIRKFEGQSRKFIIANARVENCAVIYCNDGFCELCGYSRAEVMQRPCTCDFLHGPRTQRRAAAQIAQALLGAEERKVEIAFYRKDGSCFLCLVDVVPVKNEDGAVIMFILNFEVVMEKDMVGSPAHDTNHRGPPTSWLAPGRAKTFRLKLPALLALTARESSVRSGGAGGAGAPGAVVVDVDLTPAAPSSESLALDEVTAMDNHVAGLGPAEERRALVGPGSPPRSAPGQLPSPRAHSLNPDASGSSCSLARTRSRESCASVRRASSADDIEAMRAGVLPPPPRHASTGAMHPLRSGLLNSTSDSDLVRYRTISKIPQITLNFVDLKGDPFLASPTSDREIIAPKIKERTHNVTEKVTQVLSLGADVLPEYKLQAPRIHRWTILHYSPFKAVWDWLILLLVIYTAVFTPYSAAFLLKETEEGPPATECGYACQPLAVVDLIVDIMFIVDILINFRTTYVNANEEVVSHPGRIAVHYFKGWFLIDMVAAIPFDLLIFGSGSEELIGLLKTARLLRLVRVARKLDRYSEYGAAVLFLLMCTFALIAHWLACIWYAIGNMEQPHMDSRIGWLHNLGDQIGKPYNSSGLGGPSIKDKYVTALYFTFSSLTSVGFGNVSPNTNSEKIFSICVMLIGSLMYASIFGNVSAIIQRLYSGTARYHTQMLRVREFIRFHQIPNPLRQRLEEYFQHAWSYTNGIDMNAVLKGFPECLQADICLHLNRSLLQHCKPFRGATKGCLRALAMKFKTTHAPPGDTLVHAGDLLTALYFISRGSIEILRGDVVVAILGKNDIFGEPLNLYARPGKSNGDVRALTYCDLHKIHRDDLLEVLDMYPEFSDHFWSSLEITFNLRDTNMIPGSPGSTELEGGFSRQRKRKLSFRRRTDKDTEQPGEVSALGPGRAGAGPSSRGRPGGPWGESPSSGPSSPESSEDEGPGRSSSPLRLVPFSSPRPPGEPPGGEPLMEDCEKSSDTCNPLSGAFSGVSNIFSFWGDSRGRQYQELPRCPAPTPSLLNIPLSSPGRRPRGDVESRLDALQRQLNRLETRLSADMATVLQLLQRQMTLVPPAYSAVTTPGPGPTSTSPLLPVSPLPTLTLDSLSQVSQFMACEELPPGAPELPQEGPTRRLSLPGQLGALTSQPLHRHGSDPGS

The experiment concerns the target human ether-à-go-go-related gene (hERG) potassium channel (human, UniProt Q12809). The experiment in a line: primary screen, population patch clamp on CHO cells stably expressing hERG.
Turning to `O=C(CNc1cccc(S(=O)(=O)N2CCOCC2)c1)N1CCc2ccccc21`, the “hERG current change (%, negative = inhibition) at 10uM” value is on record as -4.96%.
Take `Cc1ccc(N2CCN(S(=O)(=O)N(C)C)CC2)cc1Cl`: the “hERG current change (%, negative = inhibition) at 10uM” value was 6.03%.
Next, `CS(=O)(=O)N(CC(=O)N1CCCCC1)c1ccc2c(c1)OCO2`: 7.89%.
Under `CC1(C)S[C@@H]2C(C(=O)OCc3ccccc3)NC(=O)N2C1C(=O)OCc1ccccc1` (stereo partly shown) stands -3.95%; under `O=C(NC(=O)c1ccc(C(F)(F)F)cc1)Nc1ccc(-c2cnco2)cc1`, 8.64%; under `NC(=O)NC(=O)COC(=O)c1ccc(OC(F)F)cc1`, 19%.
Regarding `Cc1nc2c(Br)c3nc(C(F)(F)F)[nH]c3c(Br)c2[nH]1`, the “hERG current change (%, negative = inhibition) at 10uM” value is given as -4.86%.
Under `c1ccc2c(c1)OCC(CNCC1COc3ccccc3O1)O2` (stereo not shown) stands 3.12%; under `CN1CCSc2ccc(C(=O)NCc3ccccc3F)cc21`, -12.7%; under `O=C(CSc1nnc(-c2cccnc2)n1Cc1ccco1)c1ccc(Cl)c(Cl)c1`, -45.2%.
Take `COCc1cc(=O)n2[nH]c(-c3cccc(Br)c3)cc2n1`: the “hERG current change (%, negative = inhibition) at 10uM” value is listed as -24.2%.
Next, `O=C(NCc1cccs1)C1CCCN(S(=O)(=O)c2cccs2)C1` (stereo not shown): -3.12%.
For `CCOc1ccc(S(=O)(=O)n2ccc(C)n2)c2ccccc12`, the “hERG current change (%, negative = inhibition) at 10uM” value was determined as 11%.
Next, `Cc1cccc(NC(=O)Cn2cnc3c(oc4nc5c(cc43)COC(C)(C)C5)c2=O)c1`: -37.8%.
Turning to `Cc1c(NC(=O)NC(C)N2C(=O)C3C4C=CC(C4)C3C2=O)c(=O)n(-c2ccccc2)n1C` (stereo not shown), the “hERG current change (%, negative = inhibition) at 10uM” value was found to be 13%.
With `O=C(O)Cn1c(=O)c(-c2ccccc2)nc2ccccc21`, the “hERG current change (%, negative = inhibition) at 10uM” value is reported as 29.8%.
Next, `COC(=O)C1(C(C[N+](=O)[O-])c2ccco2)C(=O)NCC1c1ccccc1` (stereo not shown): 7.1%.
Next, `CC(C)C[C@H](NC(=O)OC(C)(C)C)C(=O)N1CCC(C(=O)N[C@@H](Cc2ccccc2)C(=O)O)CC1`: 6.19%; `OCC[C@H]1C[C@@H](O)[C@H](O)[C@@]2(CCCCO2)O1`: -2.89%; `O=C(NCCc1ccccc1)N1CCCC(CNS(=O)(=O)Cc2ccccc2)C1` (stereo not shown): 2.17%.
Next, `CCOC(=O)N1CCC(=NNc2ccc(S(=O)(=O)N3CCOCC3)cc2[N+](=O)[O-])CC1`: -61.3%; `COCCNC(=O)C(C(=O)c1ccc(F)cc1)n1cc(C)ccc1=O` (stereo not shown): 33.4%.
Regarding `CCS(=O)(=O)N1CCC(NC(=O)c2cc(OC)cc(OC)c2)CC1`, the “hERG current change (%, negative = inhibition) at 10uM” value is on record as 7.08%.
Under `CN=C(NC#N)SCC(=O)c1ccc(Cl)cc1Cl` stands 4.39%; under `Cc1cc(C)c(S(=O)(=O)NCCc2ccccc2)c(C)c1`, -12%.
Under `CC1CCCCN1S(=O)(=O)c1ccc2[nH]c(=O)cc(C(=O)NCCCN3CCCCCC3)c2c1` (stereo not shown) stands 17%.
Under `COc1ccc(NC(=O)c2ccc(-c3ccc(-c4noc(C)n4)cc3C)cc2)cc1N1CCN(C)CC1.Cl` stands -76%; under `CCOc1ccccc1-c1nc(-c2cc3ccc(C)cc3[nH]c2=O)no1`, 2.23%; under `CCOc1ccccc1C(=O)Nc1cccc(-c2nnc(-c3ccccc3)o2)c1`, -22.7%.
As for `Cc1cc(C)c(C)c(OCC(=O)NCCN(C)C)c1`, the “hERG current change (%, negative = inhibition) at 10uM” value is given as -13.7%.
Next, `Cc1ccc(Cl)c(OC(=O)C2CSC3(C)CCC(=O)N23)c1` (stereo not shown): 7.37%; `COc1ccc(C(=O)NCCc2ccccc2)cc1[N+](=O)[O-]`: -8.86%; `COc1ccc(N(CC(=O)NCCc2ccccc2)C(=O)CCC(=O)Nc2ccccn2)cc1`: -0.661%.
Under `COc1ccc(CCN(C)C(=O)c2c(C)noc2C)cc1OC` stands 6.39%.
Under `COc1cccc(OCc2nnc(-c3cccs3)o2)c1` stands 1.99%; under `O=C(CSc1nnc(NC(=O)c2ccccc2[N+](=O)[O-])s1)NCC1CCCO1` (stereo not shown), 5.83%.
For the molecule `COc1ccc(NC2=CC(=O)CC(c3ccc(C)cc3)C2)c(OC)c1` (stereo not shown), the “hERG current change (%, negative = inhibition) at 10uM” value is recorded as -28.8%.
Under `O=C(COC(=O)c1nn(-c2ccccc2)c(=O)c2ccccc12)NC1CCS(=O)(=O)C1` (stereo not shown) stands -3.24%; under `O=c1cccc2n1CC1CC2CN(CC(O)CN2CC3CC(C2)c2cccc(=O)n2C3)C1` (stereo not shown), 16.4%; under `O=[N+]([O-])c1ccc(N2CCCCC2)c(-c2nn[nH]n2)c1`, -26.6%.
Next, `CCCN1CCC(NC(=O)Nc2ccc(OC)c(OC)c2)CC1`: 7.36%.
On to `O=[n+]1c2c(n([O-])c3c1CCCC3)CCCC2`, for which the “hERG current change (%, negative = inhibition) at 10uM” value is on record as -1.8%.
`CN(C)N1C(N)=C(C#N)C(c2ccc(F)cc2)C2=C1CCCC2=O` (stereo not shown): the “hERG current change (%, negative = inhibition) at 10uM” value is -8.49%.
